In all, about 340,000 compounds went through this assay and about 12,000 (3.5%) were called active. Inconclusive means that the source gave no clear call. Such entries were picked first, then a sample of the others. Calls follow the shape of the dose curve; as a rule, active = well fitted inhibition curve with a large enough effect; inconclusive = small, poorly fitted or top-dose-only effect, or another doubt; inactive = no such curve, though single readings can be large or run the other way. No potency is given beside an inconclusive call; the fits are too rough.
assay: qHTS Assay for Inhibitors of Hepatitis C Virus (HCV); details: Huh7.5.1 HCVcc-Cre (HCVcc is cell-culture hepatitis C virus) infection, luciferase reporter, 44 h; series mostly up to 41.8 µM
Summary of the method: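 A cell-based infection assay in which seeded cells (1,000 per well) receive test compound after 4 h, are inoculated with HCVcc-Cre at approximately 0.5 moi, and are incubated 44 h before luminescence detection.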
Potency is read from the fitted curve at half-maximal effect; tags tell the direction and shape of the fitted curve.

Row | Structure (SMILES) | Potency
1 | O=C(Cc1csc(N2CCOCC2)n1)N/N=C/c1ccc(F)cc1 | inconclusive [inhibitor, partial curve, poor fit]
2 | CCOC(=O)C(=O)Nc1nc(-c2ccc3c(c2)CCN3C(=O)C2CC2)c(C)s1 | inactive
3 | COc1ccc(Cc2nnc(NC(=O)Nc3ccccc3F)s2)cc1OC | inconclusive [inhibitor, single point]
4 | Cc1ccc(C)c(OCC(O)CN2CCC(C)CC2)c1C (centres undefined) | inconclusive [inhibitor, partial curve]
5 | O=C(OCc1nnc(-c2ccc(Br)cc2)o1)c1cncc(Br)c1 | inactive
6 | CCc1ccccc1OCC(=O)Nc1ccc(F)c(S(=O)(=O)N2CCOCC2)c1 | inconclusive [inhibitor, partial curve]
7 | c1ccc(OCCN2CCOCC2)cc1 | inactive
8 | COc1ccc(NC(=O)c2ccc3ncsc3c2)c2ccccc12 | inactive
9 | C[C@@H]1CN([C@@H](C)CO)C(=O)c2cc(NS(=O)(=O)c3cccs3)ccc2O[C@H]1CN(C)Cc1ccc(C(F)(F)F)cc1 | inconclusive [inhibitor, single point]
10 | O=C(CP(=O)(c1ccccc1)c1ccccc1)N/N=C/c1cc(Br)cc(Br)c1O | inconclusive [inhibitor, single point]
11 | O=C1CCCCC1C(=O)c1cn(-c2ccc(Cl)c(Cl)c2)nn1 (centres undefined) | inactive
12 | Cc1cc2cc(CN(CCCN3CCOCC3)C(=O)NC3CCCCC3)c(=O)[nH]c2cc1C | inconclusive [inhibitor, single point]
13 | Cc1cc(C)c(S(=O)(=O)Nc2ccc(-c3cn4ccccc4n3)cc2)c(C)c1 | inconclusive [inhibitor, partial curve]
14 | Cc1ccc(OCCn2cc(C#N)c3ccccc32)cc1 | inconclusive [inhibitor, partial curve]
15 | CCC(C(=O)NC1CCCC1)N(Cc1cccs1)C(=O)Cn1nnc(-c2ccc(OC)c(OC)c2)n1 (centres undefined) | inconclusive [inhibitor, single point]
16 | CCCN(Cc1nnc(-c2ccccc2Cl)o1)C(=O)c1cc2ccccc2o1 | inconclusive [inhibitor, full curve]
17 | COc1ccc(CC(=O)N[C@@H]2c3cc(OC)c(OC)cc3C[C@H]2OCc2ccccc2)cc1 | inconclusive [inhibitor, partial curve]
18 | O=C(O)/C=C/C(=O)Nc1ccccc1-c1ccccc1NC(=O)/C=C/C(=O)O | inactive
19 | COc1ccc2c(c1OC)C(=O)OC2Nc1nc(-c2ccccc2)cs1 (centres undefined) | inconclusive [inhibitor, single point]
20 | COc1ccc(-c2nnnn2-c2ccccc2OC)cc1 | inconclusive [inhibitor, full curve, poor fit]
21 | COc1cccc(-c2nc(CS(=O)(=O)CC(=O)N3CCCCC3)c(C)o2)c1 | inconclusive [inhibitor, single point]
22 | c1ccc(-c2ccc(C3=Nn4c(nnc4-c4cc(-c5ccccc5)n[nH]4)SC3)cc2)cc1 | inconclusive [inhibitor, single point]

Row | Structure (SMILES) | Potency
23 | CCN(CC)CCCN1C=C2C(=O)C(C)(OC(=O)CCC(=O)OC)C(=O)C(Br)=C2C=C1c1ccc(OC)cc1 (centres undefined) | inconclusive [inhibitor, partial curve]
24 | CCc1cccc(NS(=O)(=O)c2ccc3c(c2)CCC(=O)N3)c1 | inconclusive [inhibitor, single point]
25 | COC(=O)c1sccc1NC(=O)Nc1cccc(F)c1 | inactive
26 | O=C(Nc1ccc(N2CCOCC2)cc1)c1cn2ccccc2n1 | inactive
27 | CC(=O)N1c2ccc(C)cc2Sc2c1ccc1ccccc21 | inactive
28 | O=S(=O)(c1ccc(Cl)cc1Cl)N1CCCC1c1cccnc1 (centres undefined) | inactive
29 | Cc1c(C)c(C)c(CO/N=C/c2cccs2)c(C)c1C | inconclusive [inhibitor, partial curve]
30 | COc1cc(/C=C/c2nc3ccccc3c(=O)n2-c2cccc(O)c2)ccc1O | inconclusive [inhibitor, partial curve]
31 | O=C1CCCN1c1ncc(S(=O)(=O)c2ccc([N+](=O)[O-])cc2)s1 | inconclusive [inhibitor, full curve, poor fit]
32 | O=C(CC1CCCCC1)N1CCC(c2nc(-c3ccc(S(=O)(=O)N4CCCC4)cc3)no2)CC1 | inconclusive [inhibitor, single point]
33 | CCn1c(C)[n+](CCOCC[n+]2c(C)n(CC)c3cc(Cl)c(Cl)cc32)c2cc(Cl)c(Cl)cc21 | inactive
34 | Cc1cc(C)nc(NC(=S)Nc2ccc(Br)cc2Cl)c1 | inconclusive [inhibitor, full curve, poor fit]
35 | Clc1cccc(Nc2nc(-c3ccncc3)cs2)c1 | active: 10 µM
36 | COc1ccc(C(=O)c2c(C)c3ccccc3n2CC(O)CNC(C)C)cc1 (centres undefined) | inconclusive [inhibitor, single point]
37 | O=c1[nH]c(=O)n(-c2ccccc2)c2c1C(C(F)(F)F)(C(F)(F)F)N=C(C1CCCCC1)N2 | inactive
38 | CCN(CC)S(=O)(=O)c1cccc(NC(=O)CSc2nc3ccccc3[nH]2)c1 | inconclusive [inhibitor, single point]
39 | Cc1nc(N2CCCCC2)c2c(C)c(C(=O)Nc3cccc(C(F)(F)F)c3)sc2n1 | active: 25.1 µM
40 | CCc1ccc(OCCNc2cc(N3CCNC(C)C3)ccc2[N+](=O)[O-])cc1 (centres undefined) | active: 14.1 µM
41 | COc1cc(CNc2ccc(N3CCCCC3)cc2)ccc1OCC(=O)NC(C)(C)C | active: 10 µM
42 | O=C(Nc1ccc(N2CCOCC2)c(Cl)c1)c1ccccc1F | inconclusive [inhibitor, partial curve]
43 | Cc1nc(CS(=O)(=O)c2ccccn2)sc1C(=O)NNC(=O)c1ccccc1 | inactive
44 | O=C(CN1C(=O)C2CCCN2c2ncc(Cl)cc21)NCc1ccc2c(c1)OCO2 (centres undefined) | inconclusive [inhibitor, single point]
